# Test results reported in the supplement of paper PMC3334620.
# Whole data set: some 33,000 sequences, median “E-score (-0.5 to 0.5)” near -0.056, cut for the highest 2% near 0.38. Some of the results follow.
# Biological target: Stb4 (UniProt P50104)
# Assay: PBM E-score (8-mer binding enrichment) (E-score (-0.5 to 0.5)); higher = stronger / more preferred TF binding; most listed sequences are background and not binding sites
# Conditions: protein concentration: 200 nM; construct: GST-DNA-binding domain
# Description: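 Universal 'all 10-mer' protein binding microarrays (Agilent AMADID 015681) probed with GST-tagged S. cerevisiae TFs (full-length or DBD) made by in vitro transcription/translation (PURExpress), about 100-200 nM. Bound TF was detected with fluorescent anti-GST. Each ungapped 8-mer (which stands for itself and its reverse complement) is scored by the PBM enrichment score (E-score), a modified Wilcoxon-Mann-Whitney statistic from -0.5 to +0.5, computed with the Universal PBM Analysis Suite. Scale: above 0.35 generally sequence-specific binding.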
row,Sequence,PBM E-score
1,CGATACCC,0.0781
2,AATAACGA,-0.0674
3,AGTGTTCG,0.0766
4,AATTGAAT,-0.058
5,CCACCACC,-0.04
6,ATCCGCGG,0.33
7,GTGACCCA,-0.146
8,CTACCACC,-0.137
9,CGTGCACG,0.0126
10,GATGTTTA,0.0736
11,ATAATAGA,-0.117
12,CGACCACC,-0.00731
13,CTCCGTTC,0.221
14,AATCTAGC,-0.202
15,TAGCATCA,-0.0485
16,TCCCAAAA,-0.00583
17,GCATCAGC,0.00943
18,CACAGACC,0.141
19,CAAGCAGG,-0.0856
20,AATCTGAA,-0.0773
21,ACGGCCAA,0.11
22,CGTCTCGC,-0.226
23,AGCAACTC,-0.0301
24,TCATAACA,-0.0654
25,CCTTACGA,-0.134

row,Sequence,PBM E-score
1,ATCTCTAA,0.0304
2,TAAAATTA,0.0275
3,AGAACCCG,0.244
4,ATTTATCC,0.28
5,CACATAGA,-0.112
6,CACTCTCA,-0.322
7,GAAATTAA,0.108
8,ACAGATCA,-0.0491
9,GGCGTGGA,-0.109
10,ACCTCTTA,0.115
11,AAAGGCTC,-0.0215
12,TCTCACAA,0.00236
13,CTGATTCA,-0.0464
14,GACTATCA,-0.18
15,ATCAAAAC,0.0232
16,CGTCGATA,-0.0539
17,CAGTTGGA,-0.223
18,ATCAGACC,-0.0587
19,GATGTAGC,-0.0132
20,GGAAGTCC,0.23
21,AATGAGCT,-0.089
22,ATCGCAAC,-0.224
23,AATATGCA,0.00873
24,ACTGGTCG,-0.106
25,GACAGCAA,-0.149

row,Sequence,PBM E-score
1,CGGTAAAG,0.301
2,ACTCAAGC,-0.0831
3,GATCGCAC,-0.218
4,CTGGACCC,-0.159
5,ACGATCTA,-0.299
6,CCCTGATA,-0.297
7,GAAGAGTC,-0.0545
8,ACGGATGG,0.324
9,CATTGCCC,0.00597
10,ATGTTAAA,-0.0583
11,AGTAATCC,-0.0235
12,AGGGCGAG,-0.18
13,ACGAGGGC,-0.0578
14,GCCTCATA,0.0577
15,AGTGAACG,-0.164
16,CCATAGTA,-0.0334
17,CTGCTACC,-0.16
18,CAATTACC,0.0582
19,ATTCTCGA,-0.194
20,GCTTAGTA,-0.213
21,ATCGTGAC,-0.0813
22,AGCGATTC,-0.0623
23,ATTTTATC,0.106
24,AGAGGCCC,-0.13
25,GCCAACCC,0.045

row,Sequence,PBM E-score
1,GAGGTTAA,-0.0636
2,ACGCTACC,0.00891
3,AAATACGA,-0.0719
4,ACTCCTTG,-0.0792
5,GCCATCGA,-0.0613
6,CAGGAGGC,-0.125
7,CGGCAAAA,0.297
8,CACGAGGC,-0.131
9,GGGGTCCA,-0.189
10,CAAGGTAG,-0.106
11,ACGAGGCA,-0.238
12,CGGTCGTA,0.128
13,GCAAAAGC,-0.0143
14,CTTCGGTC,0.234
15,ATCTAAAT,0.0781
16,CTTTCGCA,-0.136
17,AACTAAAC,-0.0477
18,CGCCGGAG,0.168
19,CGTGTGAG,-0.119
20,CATCGACC,-0.0244
21,AAAACTCA,-0.0483
22,ACGGCACT,0.0755
23,GAATGATA,0.0409
24,AAGCAATT,-0.0575
25,AGATGTGA,0.134

row,Sequence,PBM E-score
1,TATGAAGA,-0.0238
2,GCATTTTA,0.0291
3,CTTACGCC,-0.0253
4,TACATCGA,-0.13
5,ATCGGGTA,0.419
6,AGGAATCC,-0.042
7,CCAGTTCG,0.0945
8,CAGGCCCA,-0.244
9,ATCGAAAC,0.116
10,GTACCAAC,0.0329
11,CCTGCGCA,-0.235
12,GCCTAAAA,-0.262
13,ACGCTGAC,-0.172
14,CCGTCCTA,-0.0174
15,ACAGCTAT,-0.282
16,ACGCGTTG,-0.171
17,GCTGTTAA,0.0582
18,CAGTGACG,0.0436
19,AAGATTGG,-0.0776
20,GGCACGAC,-0.0989
21,AAATTCTG,-0.0973
22,ACCTAGTG,-0.29
23,CAACTTCC,0.238
24,AGAGACTA,0.0641
25,CACAGCTC,-0.18

row,Sequence,PBM E-score
1,AAATGCAG,-0.233
2,GCGCCATA,-0.0762
3,AGTTTGCA,-0.0788
4,TCTTGCCA,-0.235
5,TCAGGGAA,-0.15
6,CACAGATC,-0.0337
7,AATGGGTC,-0.125
8,CGTCGTAA,-0.0721
9,CCGATCCC,0.34
10,CATTCACA,-0.252
11,ACTTGCTC,-0.13
12,CTCTTCTC,-0.0938
13,CCCAGGCG,-0.0367
14,ACCATAAT,-0.0952
15,CATGTTTA,-0.12
16,AAAGACAA,-0.0914
17,ACCTGTTC,0.0787
18,CACAGTGA,-0.235
19,AACGGTTC,-0.0248
20,CATGTGGG,-0.186
21,GTCAGTTA,-0.0826
22,AGCACAAT,-0.25
23,ACACCATC,-0.197
24,GTAATAAA,0.034
25,CCGGCAAA,0.341

row,Sequence,PBM E-score
1,ATCTACTG,-0.143
2,GCACGTTA,-0.206
3,ACCGACGT,0.203
4,AGTGAACA,-0.166
5,TGGTCGAA,-0.346
6,TAGAAATA,-0.0635
7,GATTTGTA,-0.0917
8,CGCTTTAG,-0.111
9,GTTGTTGA,-0.191
10,AGAATGCC,-0.0558
11,GGAACTGA,0.208
12,ACGGATAG,0.381
13,ATGTAAGG,-0.022
14,CGCTTCTC,0.107
15,GACTAATA,-0.112
16,CCAGAGCC,-0.174
17,CAGCGTCG,-0.0719
18,ACGGCCGA,0.227
19,GATCTATA,0.0128
20,CTGGCCAC,-0.17
21,ACCTGTCC,-0.0253
22,AGTTAGCC,0.046
